# In all, about 380,000 compounds went through this assay and about 4,000 (1.1%) were called active. Inconclusive results, whose numbers are uncertain, are shown with a selection of clear calls. The call rests on the fitted dose curve; in most records, active means well fitted activation curve with a large enough effect; inconclusive means small, poorly fitted or top-dose-only effect; inactive means no such curve, though single readings can be large or run the other way. Where the call is inconclusive, the potency comes from a doubtful curve fit.
# Test: qHTS Assay to Identify Small Molecule Activators of BRCA1 Expression; further: nearly all actives have a fitted effect of over 80% in size
# Settings: MCF7-BRCA1-FFLuc reporter, luminescence, 48 h; activation: at 46.1 µM (top of the series), scaled: vehicle 0%, 10 µM genistein 100% unless noted
# How it was run: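 Cells: MCF7-BRCA1-FFLuc, 2000/well. Exposure: 48 h, 37 °C, 5% CO2. Read: luminescence, 15 min post-substrate. Controls: genistein 10 microM (maximal activation), DMSO (neutral).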
# Potency means the concentration at half of the fitted maximal effect; tags describe the fitted curve by direction and shape.
Compound,Potency,activation
Clc1ccccc1OCc1nnc(-c2ccccc2Br)o1,active: 3.98 µM,
COc1ccc(-c2nnc(SC(C)C(=O)Nc3ccc4c(c3)OCCO4)o2)cc1 (configuration not stated),active: 10 µM,
O=C(c1cnn(-c2ccccc2)c1)c1ccccc1O,"inconclusive: 1.78 µM [activator, full curve, poor fit]",
N#CC1(Nc2ccc([N+](=O)[O-])cc2)CCCC1,,inactive: -16.4%
Cc1ccc(Cc2c(-c3ccco3)nc3ccc(C)cn23)cc1,"inconclusive: 17.8 µM [activator, partial curve, poor fit]",
O=C(Oc1ccccc1)c1ccc(NC(=O)c2ccco2)cc1,"inconclusive: 25.1 µM [activator, single point]",
O=C(NC1CCCCCCC1)c1ccc(Br)cc1,"inconclusive: 2 µM [activator, partial curve, poor fit]",
CC(C)CCN1C(=O)c2ccc(C(=O)Nc3ccc(Br)cc3C(=O)O)cc2C1=O,,inactive: -3.89%
Cc1nn(-c2nc3ccccc3s2)c(N)c1Sc1ccc(F)cc1,"inconclusive: 2.24 µM [activator, full curve, poor fit]",
CC1CC1C(=O)OCc1cc(=O)n2cc(Br)ccc2n1 (configuration not stated),"inconclusive: 35.5 µM [activator, single point]",
c1cn2cc(-c3ccc4c(c3)OCO4)nc2s1,,"inconclusive: 158% [activator] [at 1.84 µM, scaled: vehicle 0%, 10 µM genistein 100%]"
CC(C)(C)NC(=O)CSc1nnc(NC(=O)c2ccccc2Cl)s1,"inconclusive: 35.5 µM [activator, single point]",
O=C(NCCO)c1ccc2c3n(nc2c1)-c1ccc(Cl)cc1CO3,active: 3.16 µM,
Cc1cccc(NC(=O)c2ccc3c(c2)OCCO3)c1C,"inconclusive: 2.51 µM [activator, partial curve, poor fit]",
CN(C)S(=O)(=O)c1ccc(C(=O)Nc2nc3ccccc3[nH]2)cc1,"inconclusive: 3.16 µM [activator, full curve, poor fit]",
CCn1nnc(NC(=O)c2ccc(C(C)(C)C)cc2)n1,"inconclusive: 35.5 µM [activator, single point]",
O=C(NNC(=O)c1cccs1)c1ccc(Cl)cc1,"inconclusive: 17.8 µM [activator, single point]",
C[C@H](CO)N1C[C@H](C)[C@H](CN(C)C(=O)Nc2ccnc(N3CCOCC3)c2)OCc2cnnn2CCCC1=O,"inconclusive: 31.6 µM [activator, single point]",
CCC(C)(C)c1nnc(NC(=O)c2ccc([N+](=O)[O-])cc2)s1,"inconclusive: 11.2 µM [activator, partial curve, poor fit]",
COc1cc(O)cc(/C=C/c2ccccc2)c1,"inconclusive: 3.16 µM [activator, partial curve, poor fit]",
CCc1ccc(NC(=O)Cn2c(=O)n(-c3ccccc3C)c(=O)c3c2c2cc(OC)ccc2n3C)cc1,,inactive: -11.8%
CN(C)S(=O)(=O)Oc1ccc(C(=O)Nc2cccc(Cl)c2)cc1,"inconclusive: 17.8 µM [activator, single point]",
O=c1cccccc1NN=C1CCCCCC1,active: 10 µM,
COc1ccc2sc3ccccc3c(=O)c2c1,active: 5.62 µM,

Compound,Potency,activation
Fc1ccccc1CSc1nnc(-c2cccnc2)o1,active: 7.08 µM,
COC(=O)c1cc(Cl)c(NC(=O)c2cc3ccccc3o2)cc1OC,"inconclusive: 3.16 µM [activator, partial curve, poor fit]",
COc1ccc(Br)c(-c2nnc(CS(=O)(=O)c3ccccc3)o2)c1,"inconclusive: 15.8 µM [activator, partial curve, poor fit]",
CS(=O)(=O)c1ncc(Cl)c(C(=O)Nc2ccc3ccccc3c2)n1,,inactive: -32.5%
CN(CC(=O)Nc1cccc(F)c1)C(=O)CCCNC(=O)c1ccc(Cl)cc1,active: 11.2 µM,
COC(=O)CSc1ncnc2c1sc1nc3c(cc12)COC(C)(C)C3,,inactive: -31.6%
CC(Oc1ccc(Cl)cc1Cl)c1nc(-c2ccccn2)no1 (configuration not stated),active: 11.2 µM,
COc1ccc(N2Cc3ccccc3C2=O)cc1,"inconclusive: 1.58 µM [activator, partial curve, poor fit]",
COC(=O)CSc1nc2cc(OC)ccc2cc1C#N,"inconclusive: 3.16 µM [activator, full curve, poor fit]",
NC(=O)C1=C[C@H](c2ccc(Br)cc2)C[C@H](OCc2ccc(CO)cc2)O1,"inconclusive: 20 µM [activator, single point]",
Cc1c(C(=O)NCc2ccc3c(c2)OCO3)oc2ccc(S(=O)(=O)N3CCC(C)CC3)cc12,,inactive: -50.7%
CC(C)(C)OC(=O)NCc1ccc(NC(=O)c2nc[nH]c2C(=O)N[C@@H](Cc2ccccc2)C(=O)OCc2ccccc2)cc1,,inactive: -82.4%
COc1ccc([C@@H]2CC=C(C(=O)O)[C@H](c3ccc(Br)cc3)N2S(=O)(=O)c2ccc(C)cc2)cc1OC,,inactive: 8.83%
CCOC(=O)C1=NN(c2cccc(Cl)c2)C2=NC(C)=C(C(=O)OC)C(c3cccs3)N12 (configuration not stated),,"inactive: -3.06% [at 1.84 µM, scaled: vehicle 0%, 10 µM genistein 100%]"
CN1CCC(=NOc2ccc([N+](=O)[O-])cc2)CC1,"inconclusive: 12.6 µM [activator, partial curve, poor fit]",
O=C(Nc1ccccn1)c1ccco1,"inconclusive: 11.2 µM [activator, partial curve, poor fit]",
CC(=O)/C=C(\C)Nc1ccc(-c2cnc(-c3ccccc3)o2)cc1,"inconclusive: 1.58 µM [activator, partial curve, poor fit]",
O=C(OCc1ccccc1)N1CCc2ccccc21,"inconclusive: 2.51 µM [activator, full curve, poor fit]",
O=c1c2ccccc2cnn1CCOc1cccc(Br)c1,"inconclusive: 7.94 µM [activator, partial curve, poor fit]",
O=[N+]([O-])c1c(Nc2ccccn2)cc(Cl)c2nonc12,,inactive: -82.4%
CCCCNC(=O)C1CC(c2cccc(F)c2)=NO1 (configuration not stated),"inconclusive: 22.4 µM [activator, single point]",
O=C(Nc1cccc(F)c1)Nc1ccc2c(c1)OCO2,"inconclusive: 1.58 µM [activator, full curve, poor fit]",
Cc1csc(SCC(=O)c2cc(C)n(Cc3cccs3)c2C)n1,,inconclusive: -49.8% [activator]
O=C(NC(=S)Nc1cccnc1Cl)c1ccco1,active: 10 µM,

Compound,Potency,activation
c1ccc(C2=NNC(c3ccccn3)=NN2)nc1,"inconclusive: 1.58 µM [activator, partial curve, poor fit]",
CC(C)C(=O)Nc1ccc2c(c1)oc1ccccc12,"inconclusive: 1.26 µM [activator, full curve, poor fit]",
O=C(c1ccccc1)c1nnc(-c2ccccc2F)o1,"inconclusive: 14.1 µM [activator, partial curve, poor fit]",
O=C(NC1CCOC1=O)c1ccccc1 (configuration not stated),,inactive: -28.1%
CCn1c(C)nc2cc(C(=O)NNC(=S)Nc3ccccc3OC)ccc21,"inconclusive: 10 µM [activator, partial curve, poor fit]",
CNc1nnc(CSc2nc3ccccc3s2)s1,active: 11.2 µM,
O=C(Nc1cc(-c2ccccc2)[nH]n1)c1ccccc1,"inconclusive: 1.58 µM [activator, full curve, poor fit]",
Cc1ccc(OCC(=O)Nc2cc(C(=O)O)cc(C(=O)O)c2)cc1C,,inactive: 22.4%
Cc1ccc(C(=O)Nc2ccc(SC(F)F)cc2)s1,"inconclusive: 3.16 µM [activator, partial curve, poor fit]",
O=C(Nc1ccc2c(c1)CCCN2C(=O)c1ccccc1)c1ccccc1,"inconclusive: 12.6 µM [activator, partial curve, poor fit]",
COc1ccccc1-c1cc(C(=O)N/N=C/c2cccs2)c2ccccc2n1,,inactive: 1.55%
C/C(=C\c1ccccc1)C(=O)NCCc1ccccc1,"inconclusive: 0.631 µM [activator, full curve, poor fit]",
CCCCOc1ccc(CC(=O)N(C)OC)cc1,,inactive: 33.2%
O=C(Nc1ccc2c(c1)CCC2)c1cccc(OC(F)F)c1,active: 2.82 µM,
COCCn1c(SCCCc2ccccc2)nc2c1c(=O)[nH]c(=O)n2C,,inactive: -4.58%
O=S(=O)(Cc1ccccc1)N(O)c1ccccc1,,inactive: 11.3%
Fc1ccccc1OCCCCCN1CCCC1,"inconclusive: 17.8 µM [activator, single point]",
O=C(Nc1ccc(N2CCCC2)c(Cl)c1)c1ccco1,"inconclusive: 0.501 µM [activator, full curve, poor fit]",
CCOC(=O)c1c(C)[nH]c(N=Nc2cccc(OC)c2)c1C,"inconclusive: 1.58 µM [activator, partial curve, poor fit]",
COc1ccc(C(=O)Nc2nc3ccc(OC)cc3s2)cc1,active: 2.24 µM,
O=C(NC1CCN(S(=O)(=O)c2ccc(Cl)cc2)CC1)C1CCCCC1,,inactive: -3.95%
Cc1ccc(-n2ncc3c2ncn2c(C)nnc32)cc1C,"inconclusive: 2.51 µM [activator, full curve, poor fit]",
O=C(NCc1ccco1)c1cc(-c2ccc3c(c2)OCO3)on1,"inconclusive: 2 µM [activator, full curve, poor fit]",
COCCCNc1ccn2nc(-c3ccc(Cl)cc3)cc2n1,"inconclusive: 1 µM [activator, full curve, poor fit]",

# — PubChem BioAssay AID624202 (National Center for Advancing Translational Sciences (NCATS), 2012)
